Experimental data from article PMC10201506 (Signal Transduction and Targeted Therapy, 2023).

System: HCoV-229E
Assay: In vitro antiviral activity against HCoV-229E
Format: cell-based
Conditions: in words

## O=C(c1cc(=O)[nH]c2ccccc12)N1CCN(c2ccc(Cl)c(Cl)c2)CC1CN1CCOCC1 (stereo not shown) [JZD-07, 4-(4-(3,4-Dichlorophenyl)-2-(morpholinomethyl)piperazine-1-carbonyl)quinolin-2(1H)-one]
  antivirus activity against HCoV-229E: good antivirus activities
